Reference: the supplement of paper PMC3334620
Over roughly 33,000 sequences, “E-score (-0.5 to 0.5)” has its median near -0.036; the highest 2% begin near 0.37. The list shows a part of the results.

Biological target: T1, Yer064c (UniProt P40041)
T1 sequence: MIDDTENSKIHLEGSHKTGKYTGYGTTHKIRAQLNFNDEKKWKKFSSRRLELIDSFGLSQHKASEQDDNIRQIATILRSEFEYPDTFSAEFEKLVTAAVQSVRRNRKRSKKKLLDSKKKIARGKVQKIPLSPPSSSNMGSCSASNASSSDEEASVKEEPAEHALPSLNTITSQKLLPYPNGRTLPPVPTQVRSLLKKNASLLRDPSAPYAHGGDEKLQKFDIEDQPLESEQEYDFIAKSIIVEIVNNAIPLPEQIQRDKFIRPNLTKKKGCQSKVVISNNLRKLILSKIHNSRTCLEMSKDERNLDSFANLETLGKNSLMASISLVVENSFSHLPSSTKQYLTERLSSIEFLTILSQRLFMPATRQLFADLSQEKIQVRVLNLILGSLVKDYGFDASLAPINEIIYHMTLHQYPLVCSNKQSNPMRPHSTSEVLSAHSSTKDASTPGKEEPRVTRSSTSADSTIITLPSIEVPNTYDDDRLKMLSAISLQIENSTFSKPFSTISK
Experiment: PBM E-score (8-mer binding enrichment) (E-score (-0.5 to 0.5)); higher = stronger / more preferred TF binding; most listed sequences are background and not binding sites
Details: protein concentration: 200 nM; construct: GST-full length
Experimental: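 Universal 'all 10-mer' protein binding microarrays (Agilent AMADID 015681) probed with GST-tagged S. cerevisiae TFs (full-length or DBD) made by in vitro transcription/translation (PURExpress), about 100-200 nM. Bound TF was detected with fluorescent anti-GST. Each ungapped 8-mer (which stands for itself and its reverse complement) is scored by the PBM enrichment score (E-score), a modified Wilcoxon-Mann-Whitney statistic from -0.5 to +0.5, computed with the Universal PBM Analysis Suite. Scale: above 0.35 generally sequence-specific binding.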

Row | Sequence | PBM E-score
1 | CCGTTACG | -0.124
2 | AGCGTAAC | 0.027
3 | AAAGTTGG | 0.0828
4 | AAAATGAT | 0.197
5 | GGTGCCAC | -0.31
6 | TAATGATA | 0.0674
7 | CGCTGCGA | 0.095
8 | ACGCTCTA | -0.153
9 | CTTTCCCA | -0.0754
10 | AGTGGGTC | -0.203
11 | CTCCGTCA | -0.0416
12 | AGCGCAAG | -0.067
13 | CTCAATCA | 0.402
14 | CCTGGCCC | -0.194
15 | AGGCACCT | -0.264
16 | AATCTGCT | 0.0664
17 | AGGTTGCC | -0.287
18 | CTAAGTAA | 0.204
19 | ACGTAACG | -0.0991
20 | GACCGTGA | 0.0756
21 | AAAGCAAA | -0.00787
22 | CACCCATC | 0.102
23 | CAATTAAG | 0.056
24 | AAACAGGT | -0.0996
25 | CTGTGGCC | -0.373

Row | Sequence | PBM E-score
26 | AGCTGTTC | -0.216
27 | AATCTCCC | 0.139
28 | AAGTTCAA | -0.00078
29 | AATCAGGT | 0.378
30 | TCAACTCA | 0.165
31 | GAGCCAAA | -0.1
32 | AGCTACCA | 0.0223
33 | CTATAAAG | -0.00177
34 | GATTTGCC | 5e-05
35 | CCCTTTGA | -0.0843
36 | GCAGCCCA | -0.174
37 | AAACCTAG | -0.118
38 | GCCGCACA | -0.105
39 | ATATAACC | 0.0125
40 | AAAATATA | 0.102
41 | AGTTTGGA | 0.144
42 | ATGCAAGG | -0.283
43 | GCCAGGAC | -0.0545
44 | TAGGGACA | -0.217
45 | AAGAAGGG | -0.266
46 | GGAAGAAA | -0.0755
47 | GAAGCGCA | -0.306
48 | GCCTCTAC | -0.262
49 | ATAAGTTA | 0.112
50 | GGTAATAC | -0.129

Row | Sequence | PBM E-score
51 | CCAGCAGC | -0.19
52 | AGGGTCAA | -0.0216
53 | ACCGATAA | 0.0165
54 | GTCGTAAC | 0.106
55 | AGCCCTTA | -0.0352
56 | ACTAGCAG | 0.2
57 | CTGTAGTC | 0.416
58 | AGCTCTAC | -0.318
59 | GAATTCCC | -0.184
60 | ATACTAAG | 0.0905
61 | CCTTGCCA | 0.184
62 | ATGCTGCC | -0.0705
63 | CCGAGAAA | -0.213
64 | CTCAGTCC | 0.255
65 | CAACCATA | 0.192
66 | CGAATCAA | 0.272
67 | CGCGTGCA | -0.186
68 | CCGTGTAG | 0.0473
69 | GCGTAAGC | -0.312
70 | CAGCTATA | 0.0648
71 | ATGCATAG | 0.0262
72 | CGCTAAGA | -0.0449
73 | GGGAGATA | -0.271
74 | TCATCGAA | 0.258
75 | AGTATGAT | 0.346

Row | Sequence | PBM E-score
76 | AGAGAATC | 0.12
77 | CGAACACA | 0.0329
78 | CCGATCGC | -0.0813
79 | GTCTAAAA | 0.0378
80 | CCGGTGAG | 0.0747
81 | GGCGAGCA | -0.157
82 | CGCGGTTA | -0.00025
83 | ACGTTTTG | 0.0343
84 | GGATTGCA | 0.00697
85 | AAAGGTGA | 0.116
86 | ATAAACGG | -0.0207
87 | TACATACA | 0.154
88 | GATGATAC | 0.00049
89 | AGAAAAGG | 0.153
90 | GCTAATAA | 0.0571
91 | CACCCCTG | -0.0345
92 | ACCGTAGG | -0.346
93 | CAGGCAGG | -0.0112
94 | GCCCGCGC | -0.164
95 | AATCGTCA | 0.216
96 | CGCGTTAA | -0.0347
97 | CGGCGACG | -0.26
98 | CCTATCCG | -0.366
99 | AATCGTGA | 0.2
100 | CCTGTACG | -0.148

Row | Sequence | PBM E-score
101 | AGTGTCGG | -0.148
102 | CACGTCGG | -0.247
103 | CAATCGGA | -0.0345
104 | GACGTATA | -0.113
105 | ACGTCAGT | 0.0998
106 | CACGCCAA | -0.0753
107 | ATAAAAGC | 0.00456
108 | GATGAGGC | -0.218
109 | TTACCAAA | 0.0267
110 | AGTGGTTC | 0.00487
111 | TATTCGAA | -0.0197
112 | CACCGGTA | 0.0582
113 | CAGCTGTA | 0.00614
114 | CAGAAAAC | 0.0822
115 | ACGGCTCG | -0.117
116 | GTCAACAC | 0.245
117 | TGACGGCA | -0.189
118 | CAACAGAC | 0.00774
119 | AATGTACT | 0.00383
120 | CTAGTCCC | -0.135
121 | CCATCGTC | -0.0755
122 | CACTGGTA | 0.011
123 | ATCACTAG | 0.146
124 | AATAGAAT | 0.123
125 | GGTACACC | -0.185

Row | Sequence | PBM E-score
126 | GAGTCCAA | 0.332
127 | GTACGCAC | -0.214
128 | ACCGGTCA | -0.201
129 | ATCGCCCG | -0.132
130 | CCAGAACG | 0.0346
131 | AGCAGGCT | -0.254
132 | ACTTCTCT | 0.104
133 | CTGACTTA | 0.407
134 | AATTGCCC | -0.234
135 | GAGACGGA | -0.12
136 | TACCGTGA | 0.0974
137 | CTTACATC | -0.0485
138 | ATGGTGCA | -0.134
139 | CTTGAGTC | 0.466
140 | ATAGAGCG | -0.0139
141 | ACTGTCAA | -0.0537
142 | CACCATGA | 0.126
143 | ATCACATA | 0.252
144 | CAGATCTA | 0.0635
145 | GACGGTAC | -0.135
146 | GGATTCCA | 0.0871
147 | CACGGGTC | -0.0881
148 | CGCCCCTC | -0.256
149 | GATGAGCC | 0.146
150 | GGCTTCCA | -0.249

Row | Sequence | PBM E-score
151 | ATGATAAC | 0.0491
152 | AGGTATGA | 0.188
153 | ATGCAACG | -0.207
154 | ACAACGTC | -0.0674
155 | CGCGAACA | -0.0954
156 | ATGACCGC | -0.075
157 | CTTTCCGA | 0.081
158 | ACTGATCA | 0.206
159 | AATTGCTC | -0.275
160 | GCCCGAAA | -0.127
161 | ATAGATTA | 0.112
162 | CCGCTTTA | -0.0889
163 | AGACGCTG | -0.115
164 | GGGTGTTA | 0.122
165 | CATCGCAG | 0.0109
166 | GCCGTCCA | -0.258
167 | CCCTAGCG | -0.0323
168 | GACGGAGC | -0.307
169 | ACAATCAA | 0.202
170 | AAATGATG | 0.0155
171 | AACGACAA | -0.0716
172 | AGATTATC | 0.0904
